# According to article PMC9911399, “Two distinct binding modes provide the RNA-binding protein RbFox with extraordinary sequence specificity”:
# Numbering of substitutions follows the chain as printed; changes in the protein carry UniProt numbers. The list shows a part of the results.
# T1: RBFOX1 RRM (Homo sapiens, UniProt Q9NWB1 109-208)
# T1 sequence: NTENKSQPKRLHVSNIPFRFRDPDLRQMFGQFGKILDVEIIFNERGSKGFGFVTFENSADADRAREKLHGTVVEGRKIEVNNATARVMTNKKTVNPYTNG
# B1: CAUCGAG (DNA:RNA)
# RNA: GGGAGACCGGAAUUCAGAUUGUCCCAUCGAGUUAAAUCCCGUCGUAGCCACCA
# DNA 1: CAATCTGAATTCCGGTCTCCC
# DNA 2: TGGTGGCTACGACGGGATT
# B2: CUAGCCU (DNA:RNA)
# RNA: B1 RNA with A26U, U27A, C28G, G29C, A30C, G31U
# DNA 1: CAATCTGAATTCCGGTCTCCC
# DNA 2: TGGTGGCTACGACGGGATT
# B3: GACAAGA (DNA:RNA)
# RNA: B1 RNA with C25G, U27C, C28A, G29A, A30G, G31A
# DNA 1: CAATCTGAATTCCGGTCTCCC
# DNA 2: TGGTGGCTACGACGGGATT
# B4: GCAGUUG (DNA:RNA)
# RNA: B1 RNA with C25G, A26C, U27A, C28G, G29U, A30U
# DNA 1: CAATCTGAATTCCGGTCTCCC
# DNA 2: TGGTGGCTACGACGGGATT
# B5: CGUGAUC (DNA:RNA)
# RNA: B1 RNA with A26G, C28G, G29A, A30U, G31C
# DNA 1: CAATCTGAATTCCGGTCTCCC
# DNA 2: TGGTGGCTACGACGGGATT
# B6: CAGGCUA (DNA:RNA)
# RNA: B1 RNA with U27G, C28G, G29C, A30U, G31A
# DNA 1: CAATCTGAATTCCGGTCTCCC
# DNA 2: TGGTGGCTACGACGGGATT
# B7: AGCUGAG (DNA:RNA)
# RNA: B1 RNA with C25A, A26G, U27C, C28U
# DNA 1: CAATCTGAATTCCGGTCTCCC
# DNA 2: TGGTGGCTACGACGGGATT
# B8: CCCGCUU (DNA:RNA)
# RNA: B1 RNA with A26C, U27C, C28G, G29C, A30U, G31U
# DNA 1: CAATCTGAATTCCGGTCTCCC
# DNA 2: TGGTGGCTACGACGGGATT
# B9: CCGUAGU (DNA:RNA)
# RNA: B1 RNA with A26C, U27G, C28U, G29A, A30G, G31U
# DNA 1: CAATCTGAATTCCGGTCTCCC
# DNA 2: TGGTGGCTACGACGGGATT
# B10: UAAACAG (DNA:RNA)
# RNA: B1 RNA with C25U, U27A, C28A, G29C
# DNA 1: CAATCTGAATTCCGGTCTCCC
# DNA 2: TGGTGGCTACGACGGGATT
# B11: UAACGAU (DNA:RNA)
# RNA: B1 RNA with C25U, U27A, G31U
# DNA 1: CAATCTGAATTCCGGTCTCCC
# DNA 2: TGGTGGCTACGACGGGATT
# B12: GGAGGCU (DNA:RNA)
# RNA: B1 RNA with C25G, A26G, U27A, C28G, A30C, G31U
# DNA 1: CAATCTGAATTCCGGTCTCCC
# DNA 2: TGGTGGCTACGACGGGATT
# B13: GUUUAGG (DNA:RNA)
# RNA: B1 RNA with C25G, A26U, C28U, G29A, A30G
# DNA 1: CAATCTGAATTCCGGTCTCCC
# DNA 2: TGGTGGCTACGACGGGATT
# B14: GUGUCUC (DNA:RNA)
# RNA: GGGAGACCGGAAUUCAGAUUGUCCGUGUCUCUUAAAUCCCGUCGUAGCCACCA
# DNA 1: CAATCTGAATTCCGGTCTCCC
# DNA 2: TGGTGGCTACGACGGGATT
# B15: AUUGGAC (DNA:RNA)
# RNA: B1 RNA with C25A, A26U, C28G, G31C
# DNA 1: CAATCTGAATTCCGGTCTCCC
# DNA 2: TGGTGGCTACGACGGGATT
# B16: UUCAACG (DNA:RNA)
# RNA: B1 RNA with C25U, A26U, U27C, C28A, G29A, A30C
# DNA 1: CAATCTGAATTCCGGTCTCCC
# DNA 2: TGGTGGCTACGACGGGATT
# B17: UGUGGUA (DNA:RNA)
# RNA: B1 RNA with C25U, A26G, C28G, A30U, G31A
# DNA 1: CAATCTGAATTCCGGTCTCCC
# DNA 2: TGGTGGCTACGACGGGATT
# B18: AUUUAAC (DNA:RNA)
# RNA: B14 RNA with G25A, G27U, C29A, U30A
# DNA 1: CAATCTGAATTCCGGTCTCCC
# DNA 2: TGGTGGCTACGACGGGATT
# B19: AGCAUGG (DNA:RNA)
# RNA: B1 RNA with C25A, A26G, U27C, C28A, G29U, A30G
# DNA 1: CAATCTGAATTCCGGTCTCCC
# DNA 2: TGGTGGCTACGACGGGATT
# B20: AUCCAAU (DNA:RNA)
# RNA: B1 RNA with C25A, A26U, U27C, G29A, G31U
# DNA 1: CAATCTGAATTCCGGTCTCCC
# DNA 2: TGGTGGCTACGACGGGATT
# B21: UGGGGAC (DNA:RNA)
# RNA: B1 RNA with C25U, A26G, U27G, C28G, G31C
# DNA 1: CAATCTGAATTCCGGTCTCCC
# DNA 2: TGGTGGCTACGACGGGATT
# B22: UAACUAU (DNA:RNA)
# RNA: B1 RNA with C25U, U27A, G29U, G31U
# DNA 1: CAATCTGAATTCCGGTCTCCC
# DNA 2: TGGTGGCTACGACGGGATT
# B23: AUUACCU (DNA:RNA)
# RNA: B14 RNA with G25A, G27U, U28A, U30C, C31U
# DNA 1: CAATCTGAATTCCGGTCTCCC
# DNA 2: TGGTGGCTACGACGGGATT
# B24: UUCACGA (DNA:RNA)
# RNA: B14 RNA with G25U, G27C, U28A, U30G, C31A
# DNA 1: CAATCTGAATTCCGGTCTCCC
# DNA 2: TGGTGGCTACGACGGGATT
# B25: GAAUAGC (DNA:RNA)
# RNA: B14 RNA with U26A, G27A, C29A, U30G
# DNA 1: CAATCTGAATTCCGGTCTCCC
# DNA 2: TGGTGGCTACGACGGGATT
# B26: GUGGGCU (DNA:RNA)
# RNA: B14 RNA with U28G, C29G, U30C, C31U
# DNA 1: CAATCTGAATTCCGGTCTCCC
# DNA 2: TGGTGGCTACGACGGGATT
# B27: CUCGUGU (DNA:RNA)
# RNA: B1 RNA with A26U, U27C, C28G, G29U, A30G, G31U
# DNA 1: CAATCTGAATTCCGGTCTCCC
# DNA 2: TGGTGGCTACGACGGGATT
# B28: CUACUUC (DNA:RNA)
# RNA: B14 RNA with G25C, G27A, U28C, C29U
# DNA 1: CAATCTGAATTCCGGTCTCCC
# DNA 2: TGGTGGCTACGACGGGATT
# B29: GACUCGA (DNA:RNA)
# RNA: B14 RNA with U26A, G27C, U30G, C31A
# DNA 1: CAATCTGAATTCCGGTCTCCC
# DNA 2: TGGTGGCTACGACGGGATT
# B30: GUCAAUU (DNA:RNA)
# RNA: B14 RNA with G27C, U28A, C29A, C31U
# DNA 1: CAATCTGAATTCCGGTCTCCC
# DNA 2: TGGTGGCTACGACGGGATT
# B31: GAGCUAA (DNA:RNA)
# RNA: B1 RNA with C25G, U27G, G29U, G31A
# DNA 1: CAATCTGAATTCCGGTCTCCC
# DNA 2: TGGTGGCTACGACGGGATT
# Target: T1, RBFOX1 RRM
# Test: EMSA; HiTS-Eq, 1 nM pool, 10 min; buffer printed only for the single-RNA assays: 10 mM Tris pH 7.5, 150 mM NaCl, 3.4 mM EDTA, 0.001% NP-40, 30 C
# Conditions: tags: His6 N-terminal (pET28a); label: 5' 32P
# How it was run: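 Relative association constants, normalised to the cognate motif, were derived by comparing read counts of each RNA species with those of the control reaction. The RNA sequenced was the free fraction, separated by 8% native PAGE after a 10 min equilibration in 50 µL of 1 nM 5′-radiolabelled RNA (7 randomized nucleotides) with increasing concentrations of purified wild-type or mutant RbFox RRM.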
row,Binder,binding signal
1,B1,0.00984 KA relative to UGCAUGU
2,B2,0.00821 KA relative to UGCAUGU
3,B3,0.00664 KA relative to UGCAUGU
4,B4,0.0127 KA relative to UGCAUGU
5,B5,0.0175 KA relative to UGCAUGU
6,B6,0.0121 KA relative to UGCAUGU
7,B7,0.0184 KA relative to UGCAUGU
8,B8,0.00454 KA relative to UGCAUGU
9,B9,0.00942 KA relative to UGCAUGU
10,B10,0.0034 KA relative to UGCAUGU
11,B11,0.00896 KA relative to UGCAUGU
12,B12,0.0186 KA relative to UGCAUGU
13,B13,0.0122 KA relative to UGCAUGU
14,B14,0.0141 KA relative to UGCAUGU
15,B15,0.00518 KA relative to UGCAUGU
16,B16,0.00556 KA relative to UGCAUGU

row,Binder,binding signal
1,B17,0.0252 KA relative to UGCAUGU
2,B18,0.00273 KA relative to UGCAUGU
3,B19,0.347 KA relative to UGCAUGU
4,B20,0.000695 KA relative to UGCAUGU
5,B21,0.00842 KA relative to UGCAUGU
6,B22,0.00371 KA relative to UGCAUGU
7,B23,0.000788 KA relative to UGCAUGU
8,B24,0.00967 KA relative to UGCAUGU
9,B25,0.00832 KA relative to UGCAUGU
10,B26,0.0216 KA relative to UGCAUGU
11,B27,0.0166 KA relative to UGCAUGU
12,B28,0.00256 KA relative to UGCAUGU
13,B29,0.0136 KA relative to UGCAUGU
14,B30,0.00563 KA relative to UGCAUGU
15,B31,0.00768 KA relative to UGCAUGU
